Here are results for 2 molecules from article PMC10209169.

Protein sequences, listed by entry. Tags and fused reporters are not part of them.
UniProt P29466: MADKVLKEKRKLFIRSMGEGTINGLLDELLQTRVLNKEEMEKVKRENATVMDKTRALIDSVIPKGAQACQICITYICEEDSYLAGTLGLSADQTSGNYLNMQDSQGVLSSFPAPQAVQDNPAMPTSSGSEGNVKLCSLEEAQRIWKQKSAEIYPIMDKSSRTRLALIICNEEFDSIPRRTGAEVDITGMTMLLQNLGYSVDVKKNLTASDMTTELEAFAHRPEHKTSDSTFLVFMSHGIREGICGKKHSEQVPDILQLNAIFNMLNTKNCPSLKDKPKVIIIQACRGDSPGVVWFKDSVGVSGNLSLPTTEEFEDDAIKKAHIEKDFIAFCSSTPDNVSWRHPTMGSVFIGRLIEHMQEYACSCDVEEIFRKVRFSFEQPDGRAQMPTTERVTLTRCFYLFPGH
UniProt Q9BQ24: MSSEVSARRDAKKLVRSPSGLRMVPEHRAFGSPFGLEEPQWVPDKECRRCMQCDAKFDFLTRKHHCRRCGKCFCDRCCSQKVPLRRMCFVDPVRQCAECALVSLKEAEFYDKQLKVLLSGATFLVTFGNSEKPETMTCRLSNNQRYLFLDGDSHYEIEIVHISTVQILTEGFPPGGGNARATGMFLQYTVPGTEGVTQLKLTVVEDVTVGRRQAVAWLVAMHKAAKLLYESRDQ

The target of experiment [1] is T1, AA 625-760 of Rubicon fused with GFP (UniProt Q92622).
T1 sequence: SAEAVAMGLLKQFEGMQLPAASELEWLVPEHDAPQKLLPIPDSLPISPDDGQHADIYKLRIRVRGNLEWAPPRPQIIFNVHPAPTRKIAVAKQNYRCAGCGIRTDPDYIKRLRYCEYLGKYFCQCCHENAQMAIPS
The experiment can be described thus: co-IP; GFP co-IP from HeLa cells transiently transfected with GFP-tagged Rubicon truncation constructs; blot for procaspase-1.

Experiment [2] addresses T2, Flightless I (human (endogenous in HUVEC)) (UniProt Q13045).
T2 sequence: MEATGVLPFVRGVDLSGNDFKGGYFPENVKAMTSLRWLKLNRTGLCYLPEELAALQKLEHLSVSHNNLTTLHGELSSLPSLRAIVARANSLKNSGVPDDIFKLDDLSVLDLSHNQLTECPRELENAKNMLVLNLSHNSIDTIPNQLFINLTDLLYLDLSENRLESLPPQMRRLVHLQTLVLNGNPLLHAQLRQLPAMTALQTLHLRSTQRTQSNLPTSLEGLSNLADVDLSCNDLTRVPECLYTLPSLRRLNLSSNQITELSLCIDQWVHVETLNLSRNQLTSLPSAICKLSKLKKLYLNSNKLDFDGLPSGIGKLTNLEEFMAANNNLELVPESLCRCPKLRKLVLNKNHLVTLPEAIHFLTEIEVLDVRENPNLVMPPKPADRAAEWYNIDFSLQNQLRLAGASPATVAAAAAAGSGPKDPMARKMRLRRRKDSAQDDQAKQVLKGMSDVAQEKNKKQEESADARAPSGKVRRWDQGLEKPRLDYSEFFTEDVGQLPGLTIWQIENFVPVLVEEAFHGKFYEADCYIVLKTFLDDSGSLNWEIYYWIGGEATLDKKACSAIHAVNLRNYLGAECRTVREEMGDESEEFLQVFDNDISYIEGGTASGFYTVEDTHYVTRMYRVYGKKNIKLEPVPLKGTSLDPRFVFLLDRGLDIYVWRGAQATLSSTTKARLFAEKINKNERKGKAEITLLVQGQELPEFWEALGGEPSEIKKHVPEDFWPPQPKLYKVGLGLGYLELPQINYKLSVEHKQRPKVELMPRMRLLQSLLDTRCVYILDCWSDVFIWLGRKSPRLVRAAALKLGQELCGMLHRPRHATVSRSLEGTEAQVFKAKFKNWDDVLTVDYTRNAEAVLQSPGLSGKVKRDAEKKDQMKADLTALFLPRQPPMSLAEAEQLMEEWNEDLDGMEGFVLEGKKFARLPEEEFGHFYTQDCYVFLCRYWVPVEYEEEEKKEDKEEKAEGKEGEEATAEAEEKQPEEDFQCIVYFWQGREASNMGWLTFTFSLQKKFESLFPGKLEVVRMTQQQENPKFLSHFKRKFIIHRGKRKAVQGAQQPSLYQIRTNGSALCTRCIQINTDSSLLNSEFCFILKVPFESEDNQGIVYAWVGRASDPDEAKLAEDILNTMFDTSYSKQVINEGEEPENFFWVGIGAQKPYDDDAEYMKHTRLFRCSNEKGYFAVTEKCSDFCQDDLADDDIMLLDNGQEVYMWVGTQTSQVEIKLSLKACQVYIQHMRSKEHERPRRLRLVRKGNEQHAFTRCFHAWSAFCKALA
The experiment can be described thus: co-IP; anti-FliI pulldown from lysates of HUVEC, basal and PRA for the indicated times; RIPA buffer without SDS, protein A/G agarose.

Experiment [3] addresses T2, Flightless I (human (endogenous in HUVEC)). The experiment can be described thus: co-IP; anti-FliI pulldown from lysates of HUVEC after PRA treatment.
The target of experiment [4] is procaspase-1 (50 kD) (human (endogenous in HUVEC)) (UniProt P29466). The experiment can be described thus: co-IP; anti-caspase-1 pulldown from HUVEC transiently transfected with increasing plasmid concentrations encoding AA 625-760 of Rubicon fused with GFP, or full-length FliI (competition by overexpression).
The target in experiment [5] is ZFYVE21 (human (endogenous in HUVEC)) (UniProt Q9BQ24). The experiment in a line: co-IP; ZFYVE21 co-IP from human cortical renal tissue of control patients in organ culture, PRA for 4 h; Western blot (n = 3). For orientation: Immunoblotting shows a protein as a band on a membrane.
Experiment [6] shares this target. The experiment in a line: co-IP; ZFYVE21 co-IP from cortical renal tissue of subjects with antibody-mediated rejection (ABMR, n = 6).
The target in experiment [7] is ZFYVE21-GFP (UniProt Q9BQ24). The experiment in a line: co-IP; GFP pulldown from HUVEC stably transduced with ZFYVE21-GFP, PRA for 30 min.
In experiment [8] the target is ZFYVE21-GFP (UniProt Q9BQ24). The experiment can be described thus: co-IP; GFP co-IP from HUVEC stably co-transduced with Rab5 DN-mCherry and ZFYVE21-GFP or Rubicon-GFP, treated with MG132.
The target in experiment [9] is ZFYVE21 (human (endogenous in HUVEC)) (UniProt Q9BQ24). The experiment in a line: co-IP; ZFYVE21 co-IP from cortical renal tissue of healthy control subjects (HC, n = 6).

No constants are given. Whether binding was seen depends on the method and setting. In cells and extracts the contact can be indirect. Some binding calls cover weakened binding; strength is not graded here. For some of these results: Sequences can lack the tags named with a protein.

With “procaspase-1 (50 kD) (from UniProt P29466 1-404) (enzyme)”, the binding entry in experiment [1] is “binds”; in experiment [2], “binds”; in experiment [3], “no binding (condition: after PRA treatment)”.

B1: Rubicon (protein, UniProt Q92622 1-972)
chain: MRPEGAGMELGGGEERLPEESRREHWQLLGNLKTTVEGLVSTNSPNVWSKYGGLERLCRDMQSILYHGLIRDQACRRQTDYWQFVKDIRWLSPHSALHVEKFISVHENDQSSADGASERAVAELWLQHSLQYHCLSAQLRPLLGDRQYIRKFYTDAAFLLSDAHVTAMLQCLEAVEQNNPRLLAQIDASMFARKHESPLLVTKSQSLTALPSSTYTPPNSYAQHSYFGSFSSLHQSVPNNGSERRSTSFPLSGPPRKPQESRGHVSPAEDQTIQAPPVSVSALARDSPLTPNEMSSSTLTSPIEASWVSSQNDSPGDASEGPEYLAIGNLDPRGRTASCQSHSSNAESSSSNLFSSSSSQKPDSAASSLGDQEGGGESQLSSVLRRSSFSEGQTLTVTSGAKKSHIRSHSDTSIASRGAPESCNDKAKLRGPLPYSGQSSEVSTPSSLYMEYEGGRYLCSGEGMFRRPSEGQSLISYLSEQDFGSCADLEKENAHFSISESLIAAIELMKCNMMSQCLEEEEVEEEDSDREIQELKQKIRLRRQQIRTKNLLPMYQEAEHGSFRVTSSSSQFSSRDSAQLSDSGSADEVDEFEIQDADIRRNTASSSKSFVSSQSFSHCFLHSTSAEAVAMGLLKQFEGMQLPAASELEWLVPEHDAPQKLLPIPDSLPISPDDGQHADIYKLRIRVRGNLEWAPPRPQIIFNVHPAPTRKIAVAKQNYRCAGCGIRTDPDYIKRLRYCEYLGKYFCQCCHENAQMAIPSRVLRKWDFSKYYVSNFSKDLLIKIWNDPLFNVQDINSALYRKVKLLNQVRLLRVQLCHMKNMFKTCRLAKELLDSFDTVPGHLTEDLHLYSLNDLTATRKGELGPRLAELTRAGATHVERCMLCQAKGFICEFCQNEDDIIFPFELHKCRTCEECKACYHKACFKSGSCPRCERLQARREALARQSLESYLSDYEEEPAEALALEAAVLEAT
B1: the binding entry in experiment [4], in experiment [5], in experiment [6], in experiment [7], in [8] and in experiment [2] was “binds” throughout. The binding entry in [9] is reported as “no binding (condition: healthy control (HC) tissues)”.
